# The RNAGym collection of RNA variant scans (doi:10.1073/pnas.2313332121)
# This sample is rich in variants without activity.
# B1: TPR 5TU (parent)
# chain: GGAUCUUCUCGAUCUAACAAAAAAGACAAAUCUGCCACAAAGCUUGAGAGCAUCUUCGGAUGCAGAGGCGGCAGCCUUCGGUGGCGCGAUAGCGCCAACGUUCUCAACUAUGACACGCAAAACGCGUGCUCCGUUGAAUGGAGUUUAUCAUG
# Variants of: B1
# Test: polymerase ribozyme fitness, log enrichment relative to wild type (log ratio); higher = more active; in vitro selection for triplet polymerase activity
# Method in brief: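 A heterodimeric triplet polymerase ribozyme had each of its subunits mutagenized by PCR into a library, which was transcribed. One round of in vitro selection, done in triplicate, annealed each library with a biotinylated primer, its partner subunit and triplets, then incubated it frozen at −7 °C before gel excision of extended constructs, streptavidin-bead capture and RT-PCR. Fitness is the logarithm of genotype enrichment relative to wild-type enrichment, based on Illumina sequencing of inputs and outputs and inverse-variance-weighted replicate averages. A base-2 logarithm is used, and genotypes were kept only with ≥10 input reads and ≥1 read per output.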
row,Variant,polymerase ribozyme fitness (log ratio)
1,C8A A12G C36A G50U U55A,≤ -4.2
2,C8G C149G,≤ -4.2
3,C8U A28U A52C C54A C87U G92U G141U U145C U146A,≤ -4.2
4,C8G A16U G50U U53A C54U C87A A115U C116G,≤ -4.2
5,C8A C36A,≤ -4.2
6,C8G A17G U55A G112A G141C,≤ -4.2
7,C8U A24C C85U G124C,≤ -4.2
8,C8U A16U A21C G67U C87U,≤ -4.2
9,C8A A52C C57U C85U,≤ -4.2
10,C8A A17U A41U G58C C125G U148A,≤ -4.2
11,C8G A22U A26U A37C G58A A60G G84C,≤ -4.2
12,C8G U45A C85G,≤ -4.2
13,C8G C10A A47C G48U U55A G84A U109G,≤ -4.2
14,C8G G42C A47U C79G C87U A98U A138U,≤ -4.2
15,C8G A22U A24C A41C G80C C87A G100U G141C,≤ -4.2
16,C8A G86A,-3.76
17,C8U A24U U33G C76U C85A G88U C96G C123U U144G,≤ -4.2
18,C8A A16C U53A G84C C105A C125U G141C,≤ -4.2
19,C8U A28G C43U G86U A113U,≤ -4.2
20,C8G G70C C93U C99U U148G,≤ -4.2
21,C8G U9G U33C A47U C96U,≤ -4.2
22,C8G A40G U53G U55G C85G G133U,≤ -4.2
23,C8G C35U G46C C72U G74U C96U A107G,≤ -4.2
24,C8U A22U G83A C85U A120C G124A U145C,≤ -4.2

row,Variant,polymerase ribozyme fitness (log ratio)
1,C8A A47G G80C G117C,≤ -4.2
2,C8A A21G A30C G88U A98G C105G,≤ -4.2
3,C8G A20U U45A G81C G92U G100C,≤ -4.2
4,C8A C14G C57A A60G C76G G141C,≤ -4.2
5,C8U A20U A41C U44A U90C G92A C105U,≤ -4.2
6,C8G C14G A20U A37U C99A C123G U134G,≤ -4.2
7,C8A C54U A66U C85G C93A A106C,≤ -4.2
8,C8U A28G A30U U44A U45A A91C C95U A97C C103G C105G,≤ -4.2
9,C8G A23U U45C G62U G68C C76A G128U U145C,≤ -4.2
10,C8U A16G C38U C79G,≤ -4.2
11,C8G U13G A39C G46A G62A G74U U77G C123A,≤ -4.2
12,C8G A24G C76A U139A A142C U144C U148G,≤ -4.2
13,C8A C57A C76U C85U G140U G141A,≤ -4.2
14,C8G U53G C69U C85A G86A G128A,≤ -4.2
15,C8U A17G A21U C57U G80A C96G,≤ -4.2
16,C8A C14A A23G A89G C95A U148A,≤ -4.2
17,C8A A40U A60U C114U,≤ -4.2
18,C8A A17C C43A U61A C87A C103G A115U G143C U151C,≤ -4.2
19,C8A C14A A21C A40C G42U U55A C85A C125A,≤ -4.2
20,C8G A17U A40U C93G C96A A97G G126A,≤ -4.2
21,C8G A22U G81C U82C C95G G140C C149A,≤ -4.2
22,C8G C10G G59C A73G G88U,≤ -4.2
23,C8U A20C U61A C76A A91U C96U C114U,≤ -4.2
24,C8G A16C A21U U44A G94C A107G G140U G143C U145G,≤ -4.2

row,Variant,polymerase ribozyme fitness (log ratio)
1,C8U A24U G70A G92A U135A,≤ -4.2
2,C8G G88U C93U,≤ -4.2
3,C8A A22G A40U C85U C132U,≤ -4.2
4,C8G A28G U61A U104A A110U A120G A138C,≤ -4.2
5,C8U A20C C75A A89U U90G C93U C99A,≤ -4.2
6,C8G G50C U55G C87A G88U U101C A115U G128A,≤ -4.2
7,C8G A52U C95U U104G G140U,≤ -4.2
8,C8U A22C U44A A89U G94C C116A,≤ -4.2
9,C8A A22G C87A A119U U134A G143C,≤ -4.2
10,C8U A12U A52U C85G,≤ -4.2
11,C8U A22U A23G C32A U82G G83A C87A U146G,≤ -4.2
12,C8G U55A C116U,≤ -4.2
13,C8G C96U A121G G140C A150U,≤ -4.2
14,C8G A150C G152A,≤ -4.2
15,C8A U33A A37U C93U C105A G143A,≤ -4.2
16,C8G C36G G62C G84U,≤ -4.2
17,C8A A24G A41C C93U A97U A120G,≤ -4.2
18,C8U A12G A24U G50U C63A G88A,≤ -4.2
19,C8A C79G C93G,≤ -4.2
20,C8U A22U A49G C69A G86A U104G C108U,≤ -4.2
21,C8U A24G C43U C72A U77G G86A A89U U90G A107U,≤ -4.2
22,C8G A21G C93U C103U,≤ -4.2
23,C8A C87A G100U G126U,≤ -4.2
24,C8G C14U A29U U61C G86C C105G A119C,≤ -4.2

row,Variant,polymerase ribozyme fitness (log ratio)
1,C8A A20U G48U C87G A91C C131A,≤ -4.2
2,C8G C32U G80U,-4.14
3,C8A C14G A22U U55A G81C G92A C95U C103G A121G,≤ -4.2
4,C8U A26U A47U A91C C96U,≤ -4.2
5,C8G A30U U31G A40G A60G U77G C103U A138U,≤ -4.2
6,C8A A24U A30G C57A A66U C75G C95G A107G,≤ -4.2
7,C8G A47C G62A A66G U90C C95A C99U U139G,≤ -4.2
8,C8G G83C A107C G143A A147U,≤ -4.2
9,C8A A30C C51G A64U G94C G126C,≤ -4.2
10,C8U A24U A29U A41C G74A C99A G124U,≤ -4.2
11,C8G C35U G58A C76A G140C G143A,≤ -4.2
12,C8G U9C A17G G81A G84U C103A U145A,≤ -4.2
13,C8G A22C C69A G81U G84U,≤ -4.2
14,C8G U31G A39U C43G C79U C85G C103A G126U U139A,≤ -4.2
15,C8U A17U A49U U53A G83U G133C,≤ -4.2
16,C8U A20U G86U A107G G143C U151A,≤ -4.2
17,C8G C32U G50C U55A C79G C96A,≤ -4.2
18,C8G G34C C35G C43A G94C G117U U144A,≤ -4.2
19,C8U A12C A24C A30C C38G C76G G94A C131A A137C,≤ -4.2
20,C8G A17G U61A C87G A119G,≤ -4.2
21,C8G G50C G59U G86A A110G,≤ -4.2
22,C8G A52G C72U U77A C108G,≤ -4.2
23,C8A G42C U44A U61A G81C G88U U104A G117A G126C G128C,≤ -4.2
24,C8G A39U C96U G140A,≤ -4.2

row,Variant,polymerase ribozyme fitness (log ratio)
1,C8G A12G C35U C75A G86U U109G U127G A137G,≤ -4.2
2,C8U A19G A39U C54U U61A G71A U77A G80C G88U G112C A113G C125G A150U,≤ -4.2
3,C8A U55A C72G G81U C85U A115U,≤ -4.2
4,C8G C57A G84U C114U U148C A150C,≤ -4.2
5,C8G G11C C14U G50C C95U C132A U135A A137C,≤ -4.2
6,C8G A12G A22G U33A G48A A89U,≤ -4.2
7,C8U A17U G42C C116U C125U U146G,≤ -4.2
8,C8G U82A C85U C116U,≤ -4.2
9,C8A A40C C69G G74A C96A A113C,≤ -4.2
10,C8G A26C A52U G65A A73G G80C G84A G124C,≤ -4.2
11,C8G G84A G128U,≤ -4.2
12,C8A C76A C85U G143C A150U,≤ -4.2
13,C8A A17U A39U C85U U139A,≤ -4.2
14,C8G A106G A119U,≤ -4.2
15,C8G A24C U61G,≤ -4.2
16,C8G A24C C27G A28U A37C A40C G50C U90C C95G C132U,≤ -4.2
17,C8A A41G U44G C79A A91C,≤ -4.2
18,C8A A30U C93U C99G C129A G136A G141C,≤ -4.2
19,C8G U13G A40C U77A G94A A97C C99U A113G G117U U139G U144G,≤ -4.2
20,C8G A21C,-3.31
21,C8G U82G G84U C85U A107C,≤ -4.2
22,C8G C75G U78A C96U U130G,≤ -4.2
23,C8A A17U A23U A26G C27G C54A G83A C118A,≤ -4.2
24,C8A A20U G42C C43G U44A A113U A142C,≤ -4.2

row,Variant,polymerase ribozyme fitness (log ratio)
1,C8G U31A A37C A49U U77C,≤ -4.2
2,C8A C72G U127C G143U U144G,≤ -4.2
3,C8G G11A A26G C57U G62C C72G C131G U145C,≤ -4.2
4,C8G C63U G68A G92A A107U A142G,≤ -4.2
5,C8G C35U A40U G68A G86U G141U G152U,≤ -4.2
6,C8G C27A G80U C85U C103U A113U G133A C149G,≤ -4.2
7,C8A C14G U55A A91U C103U G126U,≤ -4.2
8,C8G C14G A22C C35G C87G U90C,≤ -4.2
9,C8A C54U C87U G92C U102G A113U,≤ -4.2
10,C8G A41C C43U C93U G143C,≤ -4.2
11,C8A C57U U77A C96U A137C,≤ -4.2
12,C8G A52C G84U G92A G140U,≤ -4.2
13,C8G A41G C54G G68A G84A U104A C108U,≤ -4.2
14,C8A G83A C87A A138U G143A,≤ -4.2
15,C8G A20U G50C C79A G84A A98C,≤ -4.2
16,C8A A64G A91G,≤ -4.2
17,C8A G83A G117U C129G,≤ -4.2
18,C8A A28C U102A U146G,≤ -4.2
19,C8G U9C C76A A91C C108U,≤ -4.2
20,C8G U53A G59C G92U C131A,≤ -4.2
21,C8G A26U G42C G80A C85G C114A,≤ -4.2
22,C8A A12U U15G G62U G124A,≤ -4.2
23,C8A A49C U56A C93A G140U,≤ -4.2
24,C8A A28U G71A C95U A110C,≤ -4.2

row,Variant,polymerase ribozyme fitness (log ratio)
1,C8G A23U G50A G81U C85U C108A G141C,≤ -4.2
2,C8U A22G C75A C87U G140C,≤ -4.2
3,C8U A23C C36G U55A A106U A107G C108U C125G,≤ -4.2
4,C8G U9G A22U A39U U56G C103A A119C A121U A137C,≤ -4.2
5,C8G C10G U31G C38U A49C G65U G71U G83U C105G,≤ -4.2
6,C8G U9C G94U A120G C149U,≤ -4.2
7,C8G C87G,≤ -4.2
8,C8G C87A,≤ -4.2
9,C8G C87U,-3.36
10,C8G C32A G42A C54U U56A C96G C118G,≤ -4.2
11,C8U A16G C87U,≤ -4.2
12,C8A G46C C85U,≤ -4.2
13,C8A A20C G50C U53A G58A A66G G84U G92U U134G,≤ -4.2
14,C8A A19G G71A U82G G136U,≤ -4.2
15,C8U A22G A98G C131U U139C U144G,≤ -4.2
16,C8G C38U A49C U90G C99A C103G C118U,≤ -4.2
17,C8A A49G G71A C93U G152A,≤ -4.2
18,C8A A29C,≤ -4.2
19,C8U A26U U82G C95A,≤ -4.2
20,C8G A24U G25U G80A C96G C125A,≤ -4.2
21,C8G A21U G65C A66C A119U,≤ -4.2
22,C8G C18G G84C C105A G126A,≤ -4.2
23,C8G A20U A24C A40G C76A C132G,≤ -4.2
